# In publication PMC9911399, “Two distinct binding modes provide the RNA-binding protein RbFox with extraordinary sequence specificity”:
# Substitutions are numbered along the chain they refer to; changes in the protein carry UniProt numbers. The list shows a part of the results.
# T1: RBFOX1 RRM RbFoxmut (Fox-RRM*) (Homo sapiens, UniProt Q9NWB1 109-208, R118D;E147R;N151S;E152T)
# T1 sequence: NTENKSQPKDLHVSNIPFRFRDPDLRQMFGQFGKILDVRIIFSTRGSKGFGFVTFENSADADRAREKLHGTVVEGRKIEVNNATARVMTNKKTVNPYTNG
# B1: CGACGGG (DNA:RNA)
# RNA: GGGAGACCGGAAUUCAGAUUGUCCCGACGGGUUAAAUCCCGUCGUAGCCACCA
# DNA 1: CAATCTGAATTCCGGTCTCCC
# DNA 2: TGGTGGCTACGACGGGATT
# B2: GACGUAG (DNA:RNA)
# RNA: B1 RNA with C25G, G26A, A27C, C28G, G29U, G30A
# DNA 1: CAATCTGAATTCCGGTCTCCC
# DNA 2: TGGTGGCTACGACGGGATT
# B3: AGGAACC (DNA:RNA)
# RNA: B1 RNA with C25A, A27G, C28A, G29A, G30C, G31C
# DNA 1: CAATCTGAATTCCGGTCTCCC
# DNA 2: TGGTGGCTACGACGGGATT
# B4: GCUUUUG (DNA:RNA)
# RNA: B1 RNA with C25G, G26C, A27U, C28U, G29U, G30U
# DNA 1: CAATCTGAATTCCGGTCTCCC
# DNA 2: TGGTGGCTACGACGGGATT
# B5: UCAGAUA (DNA:RNA)
# RNA: B1 RNA with C25U, G26C, C28G, G29A, G30U, G31A
# DNA 1: CAATCTGAATTCCGGTCTCCC
# DNA 2: TGGTGGCTACGACGGGATT
# B6: CAUACAC (DNA:RNA)
# RNA: B1 RNA with G26A, A27U, C28A, G29C, G30A, G31C
# DNA 1: CAATCTGAATTCCGGTCTCCC
# DNA 2: TGGTGGCTACGACGGGATT
# B7: CAUAGAU (DNA:RNA)
# RNA: B1 RNA with G26A, A27U, C28A, G30A, G31U
# DNA 1: CAATCTGAATTCCGGTCTCCC
# DNA 2: TGGTGGCTACGACGGGATT
# B8: AGCUCAA (DNA:RNA)
# RNA: B1 RNA with C25A, A27C, C28U, G29C, G30A, G31A
# DNA 1: CAATCTGAATTCCGGTCTCCC
# DNA 2: TGGTGGCTACGACGGGATT
# B9: CCUGAGC (DNA:RNA)
# RNA: B1 RNA with G26C, A27U, C28G, G29A, G31C
# DNA 1: CAATCTGAATTCCGGTCTCCC
# DNA 2: TGGTGGCTACGACGGGATT
# B10: CUUAUGG (DNA:RNA)
# RNA: B1 RNA with G26U, A27U, C28A, G29U
# DNA 1: CAATCTGAATTCCGGTCTCCC
# DNA 2: TGGTGGCTACGACGGGATT
# B11: GGUGCUC (DNA:RNA)
# RNA: B1 RNA with C25G, A27U, C28G, G29C, G30U, G31C
# DNA 1: CAATCTGAATTCCGGTCTCCC
# DNA 2: TGGTGGCTACGACGGGATT
# B12: CUGUGUU (DNA:RNA)
# RNA: B1 RNA with G26U, A27G, C28U, G30U, G31U
# DNA 1: CAATCTGAATTCCGGTCTCCC
# DNA 2: TGGTGGCTACGACGGGATT
# B13: CAGGGAC (DNA:RNA)
# RNA: B1 RNA with G26A, A27G, C28G, G30A, G31C
# DNA 1: CAATCTGAATTCCGGTCTCCC
# DNA 2: TGGTGGCTACGACGGGATT
# B14: CGCCAAC (DNA:RNA)
# RNA: B1 RNA with A27C, G29A, G30A, G31C
# DNA 1: CAATCTGAATTCCGGTCTCCC
# DNA 2: TGGTGGCTACGACGGGATT
# B15: UGUGAAG (DNA:RNA)
# RNA: B1 RNA with C25U, A27U, C28G, G29A, G30A
# DNA 1: CAATCTGAATTCCGGTCTCCC
# DNA 2: TGGTGGCTACGACGGGATT
# B16: CUGUUGA (DNA:RNA)
# RNA: B1 RNA with G26U, A27G, C28U, G29U, G31A
# DNA 1: CAATCTGAATTCCGGTCTCCC
# DNA 2: TGGTGGCTACGACGGGATT
# B17: GUACAGA (DNA:RNA)
# RNA: B1 RNA with C25G, G26U, G29A, G31A
# DNA 1: CAATCTGAATTCCGGTCTCCC
# DNA 2: TGGTGGCTACGACGGGATT
# B18: CUUUACG (DNA:RNA)
# RNA: B1 RNA with G26U, A27U, C28U, G29A, G30C
# DNA 1: CAATCTGAATTCCGGTCTCCC
# DNA 2: TGGTGGCTACGACGGGATT
# B19: UCCUCAC (DNA:RNA)
# RNA: GGGAGACCGGAAUUCAGAUUGUCCUCCUCACUUAAAUCCCGUCGUAGCCACCA
# DNA 1: CAATCTGAATTCCGGTCTCCC
# DNA 2: TGGTGGCTACGACGGGATT
# B20: UAGGGCC (DNA:RNA)
# RNA: B19 RNA with C26A, C27G, U28G, C29G, A30C
# DNA 1: CAATCTGAATTCCGGTCTCCC
# DNA 2: TGGTGGCTACGACGGGATT
# Target: T1, RBFOX1 RRM RbFoxmut (Fox-RRM*)
# Experiment: EMSA; HiTS-Eq, 1 nM pool, 10 min; buffer printed only for the single-RNA assays: 10 mM Tris pH 7.5, 150 mM NaCl, 3.4 mM EDTA, 0.001% NP-40, 30 C
# Conditions: tags: His6 N-terminal (pET28a); label: 5' 32P
# Outline: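 A pool of RNA with 7 randomized nucleotides, 5′-radiolabelled and with DNA-annealed flanks, was equilibrated at 1 nM for 10 min in 50 µL with purified RbFox RRM, wild type or mutant, across increasing protein concentrations. Free RNA was separated by 8% native PAGE, excised, reverse-transcribed, barcoded by PCR and sequenced. Relative association constants were obtained from read-count changes of each RNA species versus the control reaction and normalised to the cognate motif.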
row,Binder,binding signal
1,B1,0.0682 KA relative to UGCAUGU
2,B2,0.0961 KA relative to UGCAUGU
3,B3,0.13 KA relative to UGCAUGU
4,B4,0.0974 KA relative to UGCAUGU
5,B5,0.111 KA relative to UGCAUGU
6,B6,0.0927 KA relative to UGCAUGU
7,B7,0.0971 KA relative to UGCAUGU
8,B8,0.0673 KA relative to UGCAUGU
9,B9,0.0942 KA relative to UGCAUGU
10,B10,0.0899 KA relative to UGCAUGU
11,B11,0.0985 KA relative to UGCAUGU
12,B12,0.14 KA relative to UGCAUGU
13,B13,0.0782 KA relative to UGCAUGU
14,B14,0.0503 KA relative to UGCAUGU
15,B15,0.138 KA relative to UGCAUGU
16,B16,0.104 KA relative to UGCAUGU
17,B17,0.0876 KA relative to UGCAUGU
18,B18,0.123 KA relative to UGCAUGU
19,B19,0.114 KA relative to UGCAUGU
20,B20,0.128 KA relative to UGCAUGU
